This experiment addresses PKCθ P331/4A (two internal Pro residues of the PR motif mutated to alanine) (human, UniProt Q04759 1-706). Description: anti-CD28 co-IP, stimulated transduced PKCθ-/- T cells (FIG. 4c).

The source of these data is patent US20180335433A1 (LA JOLLA INSTITUTE FOR ALLERGY AND IMMUNOLOGY, published 2018).

B1: CD28, endogenous in primary mouse CD4+ T cells (receptor)
chain: not shown
notes: whole, on cells; Immunoprecipitated with anti-CD28 mAb from lysates of retrovirally transduced mouse T cells; also called murine CD28
On to B1, for which the binding result is given as “no binding”.
